Results from PubChem BioAssay AID686978 (National Center for Advancing Translational Sciences (NCATS), 2013).
Several values for one entry are separate records, joined by “and”; a condition that tells them apart may be missing. Identical values can stand only once. Out of some 420,000 compounds screened, about 64,000 (15%) were called active. Inconclusive results, whose numbers are uncertain, are shown with a selection of clear calls. Calls follow the shape of the dose curve; as a rule, active = well fitted inhibition curve with a large enough effect; inconclusive = small, poorly fitted or top-dose-only effect; inactive = flat fitted curve, though single readings scatter. A potency beside an inconclusive call is a rough fit, not a confirmed value.

Assay: qHTS for Inhibitors of human tyrosyl-DNA phosphodiesterase 1 (TDP1): qHTS in cells in absence of CPT; also: nearly all actives have a fitted effect of over 55% in size
Settings: DT40 Tdp1-/- hTDP1 cells, no CPT, ATP luminescence, 48 h; activity change, negative = growth inhibition: at 46.2 µM (top of the series) unless noted
Outline: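 Readout: luminescence from CellTiter-Glo after 30 min in the dark at RT. Cells: DT40 Tdp1-/- with stable hTDP1, 400/well. Exposure: compounds alone, ≥48 hr, 37 °C.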
% is scaled to controls: 0 for no effect and ±100 for the full control effect; potency is read from the fitted curve at half-maximal effect; tags tell the direction and shape of the fitted curve.

For `CCCCCC(O)(CCN1CCCCC1)c1ccc(OCC)cc1` (stereo not given), which Potency is on record?
Its Potency is inconclusive: 29.1 µM [inhibitor, single point].

For `C/C(=N\NC(=O)C1COc2ccccc2O1)c1ccccn1` (stereo not given), which Potency is on record?
The Potency was active: 2.91 µM.

For `COc1ccc(-c2nnc(SCC(=O)Nc3sc4c(c3C#N)CCC4)n2CC2CCCO2)cc1` (stereo not given), which Potency is on record?
The Potency was inconclusive: 7.31 µM [inhibitor, partial curve].

With `CC(=O)Nc1ccc(C(=O)Nc2ccc(S(=O)(=O)N3CCCC3)cc2)cc1` as the molecule, how does the “activity change, negative = growth inhibition” value read?
Its value is inactive: -17.4%.

Which “activity change, negative = growth inhibition” value does the source give for `CC1CCN(c2nn3c(=O)c(C(=O)NCc4ccc(Cl)cc4)cnc3s2)CC1` here?
Its value is inactive: 3.66%.

For `COc1ccc([N+](=O)[O-])cc1N/C(=N/S(=O)(=O)c1ccccc1)c1ccccc1`, which “activity change, negative = growth inhibition” value is on record?
Its value is inactive: -7.94%.

With `O=C(Nc1ccc2c(c1)OCCO2)C(=O)c1c[nH]c2ccccc12` as the molecule, how does the Potency read?
Its Potency is inconclusive: 8.2 µM [inhibitor, partial curve].

For `COC(=O)[C@H]1C[C@H](OC(=O)NCc2ccco2)[C@@]2(O)CN(S(=O)(=O)c3ccc(C)cc3)CC2[C@H]1C(=O)OC` (stereo not given in full), which Potency is on record?
Its Potency is inconclusive: 25.9 µM [inhibitor, single point].

With `Cc1cc(C)nc(SCC(=O)N/N=C/c2cccc([N+](=O)[O-])c2)n1` as the molecule, how does the Potency read?
The Potency was active: 23.1 µM.

Which Potency does the source give for `COc1cc(SC#N)ccc1N=Cc1c(C)[nH]n(-c2cccc3ccccc23)c1=O` here?
The Potency was active: 10.3 µM.

With `COCC(=O)N1CCC2(CC1)CN(C(c1ccccc1)c1ccccc1)C2` as the molecule, how does the “activity change, negative = growth inhibition” value read?
Its value is inactive: -28.3%.

For `Cc1noc(Cn2c(=O)c3ccccc3n(CC(=O)Nc3cccc(Cl)c3C)c2=O)n1`, which Potency is on record?
Its Potency is inconclusive: 25.9 µM [inhibitor, single point].

For `Nc1nc2c(c(=O)[nH]1)C(c1ccccc1)C1=C(N2)c2ccccc2C1=O` (stereo not given), which “activity change, negative = growth inhibition” value is on record?
The value was inactive: -18.3%.

Which Potency does the source give for `NC(=S)NN=Cc1ccc(OC(=O)COc2cc(Cl)c(Cl)cc2Cl)cn1` here?
The Potency was active: 5.8 µM.

With `CCOC(=O)c1nc(C)sc1-c1ccnn1S(=O)(=O)c1cccc(Cl)c1` as the molecule, how does the “activity change, negative = growth inhibition” value read?
The value was inactive: -23%.

For `CCOC(=O)[C@@H]1[C@H]2COc3ccccc3[C@H]2N2C(=O)N(c3ccc(Cl)cc3)C(=O)[C@]12C`, which Potency is on record?
Its Potency is active: 20.6 µM.

Which Potency does the source give for `COc1ccc(C(C(=O)NC2CCCC2)N(C(=O)c2snc(-c3ccc(F)cc3)c2N)c2ccc(OC)cc2)cc1` (stereo not given) here?
Its Potency is active: 3.66 µM.

For `CC[N+]1(CC)CCC(=C(c2ccccc2)c2ccccc2)C1C` (stereo not given), which Potency is on record?
The Potency was active: 3.35 µM.

With `O=C(N=C1SC2CS(=O)(=O)CC2N1c1ccc(F)cc1F)C1CC1` (stereo not given) as the molecule, how does the “activity change, negative = growth inhibition” value read?
Its value is inactive: 17.7%.

For `CC(=O)N1CCCc2cc(S(=O)(=O)N(C)CC(=O)Nc3ccc(C)cc3C)ccc21`, which Potency is on record?
Its Potency is inconclusive: 18.4 µM [inhibitor, single point].

For `Cc1cc(C)nc(NC(=O)C(C)N2C(=O)c3ccccc3C2=O)n1` (stereo not given), which “activity change, negative = growth inhibition” value is on record?
The value was inactive: -11.5%.

With `COc1cc(OC)cc(C(=O)OCC(=O)NC(c2ccccc2)c2ccccc2)c1` as the molecule, how does the “activity change, negative = growth inhibition” value read?
Its value is inactive: -11.1%.

For `COc1ccc(C2=NOC(C(=O)NCc3cccnc3)C2)cc1` (stereo not given), which “activity change, negative = growth inhibition” value is on record?
The value was inactive: -15.3%.

For `C=CCn1c(C)cc(C(=O)CSc2nc3ccccc3o2)c1C`, which Potency is on record?
Its Potency is inconclusive: 29.1 µM [inhibitor, single point].

Which Potency does the source give for `CCC(C(=O)NCC1CCCO1)n1nc(C)c2sc3ccccc3c2c1=O` (stereo not given) here?
Its Potency is inconclusive: 23.1 µM [inhibitor, single point].

Which Potency does the source give for `COc1ccc(N2CCN(C(=O)c3oc4ccccc4c3NC(=O)Cc3cccc(OC)c3)CC2)cc1` here?
Its Potency is inconclusive: 29.1 µM [inhibitor, single point].

Which “activity change, negative = growth inhibition” value does the source give for `Cc1c(C#N)c2n(c1C)CCCC(=O)N2` here?
Its value is inactive: 5.46%.

Which Potency does the source give for `CSC(=NC#N)N1CCN(c2ccc([N+](=O)[O-])cc2)CC1` here?
Its Potency is inconclusive: 16.4 µM [inhibitor, partial curve].

With `O=S(=O)(c1ccccc1)c1nc(Nc2cccc(O)c2)sc1Cl` as the molecule, how does the Potency read?
Its Potency is inconclusive: 11.6 µM [inhibitor, partial curve, poor fit].

For `O=C(Nc1cccn(Cc2ccccc2Cl)c1=O)NC1CCCCC1`, which Potency is on record?
The Potency was inconclusive: 18.4 µM [inhibitor, single point].

For `CCN1CCN(c2ccc(N3CCN(S(=O)(=O)c4cccc([N+](=O)[O-])c4)CC3)nn2)CC1`, which Potency is on record?
The Potency was inconclusive: 18.4 µM [inhibitor, single point].

For `CN(c1ccccc1)S(=O)(=O)c1cccc(NC(=O)CN2CCc3ccccc3C2)c1`, which Potency is on record?
Its Potency is inconclusive: 11.6 µM [inhibitor, partial curve].

With `CC(=O)N1CCCc2cc(S(=O)(=O)N3CCN(c4ccccn4)CC3)ccc21` as the molecule, how does the Potency read?
The Potency was inconclusive: 20.6 µM [inhibitor, single point].

For `Cc1ccc(OCc2nnc(SCC(=O)Nc3sc(C)c(C)c3C#N)n2C)cc1`, which Potency is on record?
Its Potency is inconclusive: 29.1 µM [inhibitor, single point].

For `CN(C)S(=O)(=O)c1ccc(C(=O)OCC(=O)NC(=O)NCc2ccccc2)cc1`, which “activity change, negative = growth inhibition” value is on record?
The value was inactive: -5.3%.

With `COC(=O)c1c(NC(=O)CSc2ccccc2N)sc(C)c1C` as the molecule, how does the activity change, negative = growth inhibition read?
Its activity change, negative = growth inhibition is inconclusive: -32.4% [inhibitor].

Which Potency does the source give for `CCC/C(C)=N\Nc1nc2c(c(=O)n(C)c(=O)n2C)n1C` here?
Its Potency is inconclusive: 14.6 µM [inhibitor, partial curve, poor fit].

With `COC(=O)c1c(C)noc1-c1cc(C)on1` as the molecule, how does the “activity change, negative = growth inhibition” value read?
Its value is inactive: -2.63%.

With `CC(C)(C)c1ccccc1NC(=O)c1ccc2c(c1)SC1=NS(=O)(=O)CCN12` as the molecule, how does the Potency read?
The Potency was inconclusive: 23.1 µM [inhibitor, partial curve].

For `N#CCCn1cc(CNC2CCC(O)CC2)c2ccccc21` (stereo not given), which “activity change, negative = growth inhibition” value is on record?
Its value is inactive: -9.8%.

For `Cc1ccc(-c2ccc(=O)n(CCC(=O)NCCN3CCCCC3C)n2)cc1` (stereo not given), which Potency is on record?
Its Potency is inconclusive: 20.6 µM [inhibitor, partial curve, poor fit].

For `CCN(CC)CCCNc1nc2cc(OC)c(OC)cc2c2nc(-c3cccnc3)nn12`, which Potency is on record?
Its Potency is active: 13 µM.

Which Potency does the source give for `CC(C)C(NC(=O)OCc1ccccc1)C(=O)N1CCOCCOCCOCC1` (stereo not given) here?
Its Potency is inconclusive: 11.6 µM [inhibitor, partial curve].

With `CN(C)S(=O)(=O)N1CCN(CC(O)COc2ccc(-c3ccccc3)cc2)CC1` (stereo not given) as the molecule, how does the Potency read?
Its Potency is active: 11.6 µM.

Which Potency does the source give for `COc1ccc(CNC(=O)CS(=O)(=O)Cc2nc(-c3cccc(OC)c3)oc2C)cc1` here?
Its Potency is inconclusive: 7.31 µM [inhibitor, partial curve].

Which Potency does the source give for `Cc1ccccc1-n1cc(-c2ccccc2)nc1SCC(=O)Nc1ccc(F)cc1` here?
Its Potency is inconclusive: 29.1 µM [inhibitor, single point].

With `CCOC(=O)C1(Cc2ccccc2)CCN(Cc2cnn(-c3ccccc3)c2)CC1` as the molecule, how does the Potency read?
The Potency was inconclusive: 18.4 µM [inhibitor, single point].

For `C=CCNC(=S)N(C1CCCCC1)C1CCCCC1`, which Potency is on record?
Its Potency is active: 23.1 µM.

With `Cc1cc(F)ccc1NCc1cc2c(cc1[N+](=O)[O-])OCO2` as the molecule, how does the Potency read?
Its Potency is inconclusive: 29.1 µM [inhibitor, single point].

Which Potency does the source give for `CCCN1C(=O)/C(=C/c2c(NCCCOC(C)C)nc3c(C)cccn3c2=O)SC1=S` here?
The Potency was inconclusive: 29.1 µM [inhibitor, single point].

With `O=C(COC(=O)c1ncc(Cl)c(Cl)c1Cl)NCc1ccccc1` as the molecule, how does the “activity change, negative = growth inhibition” value read?
Its value is inactive: 2.04%.

For `COc1cccc(C2c3c(oc4ccc(C)cc4c3=O)C(=O)N2CCCN2CCOCC2)c1OC` (stereo not given), which Potency is on record?
The Potency was inconclusive: 29.1 µM [inhibitor, single point].

For `O=C(Nc1cccc(NC(=O)c2ccc(Br)o2)c1)c1ccccc1`, which Potency is on record?
Its Potency is “inactive and inconclusive: 18.4 µM [inhibitor, single point]”.

Which Potency does the source give for `COc1ccc(/C=C/C(=O)NCCN2CCOCC2)cc1OC` here?
Its Potency is active: 20.6 µM.

Which Potency does the source give for `CC(C)N1C(=O)S/C(=C\c2ccc(-c3ccc(Cl)c(C(=O)O)c3)o2)C1=O` here?
The Potency was inconclusive: 11.6 µM [inhibitor, partial curve].

With `COC(=O)C1=C(N)Oc2cc(C)n(Cc3ccco3)c(=O)c2C1c1cccc(Cl)c1` (stereo not given) as the molecule, how does the “activity change, negative = growth inhibition” value read?
Its value is inactive: -5.62%.

With `O=C(Nc1ccccc1)N1CCCC2(CCN(C(=O)c3cccc(F)c3)CC2)C1` as the molecule, how does the “activity change, negative = growth inhibition” value read?
The value was inactive: -8.49%.

Which Potency does the source give for `Cc1cccc(-c2noc(-c3cccnc3NCc3ccco3)n2)c1` here?
The Potency was inconclusive: 29.1 µM [inhibitor, single point].

For `CC1=C(CC(=O)O)c2cc(F)ccc2/C1=C\c1ccc(S(C)=O)cc1` (stereo not given), which Potency is on record?
Its Potency is inconclusive: 33.5 µM [inhibitor, single point].

For `CCc1ccc2c(c1)NC(=O)C2(C)Cc1ccccc1C#N` (stereo not given), which Potency is on record?
Its Potency is inconclusive: 16.4 µM [inhibitor, single point].

For `CCOC(=O)c1ccccc1NC(=O)CN1CCC(n2nnc3cc(C(F)(F)F)ccc32)CC1`, which Potency is on record?
Its Potency is inconclusive: 16.4 µM [inhibitor, partial curve, poor fit].

With `COc1cc(N/C(N)=N/c2nc(C)cc(C)n2)cc(OC)c1` as the molecule, how does the Potency read?
Its Potency is active: 20.6 µM.

Which Potency does the source give for `CC(=O)CC1(O)C(=O)N(Cc2ccccc2)c2ccccc21` (stereo not given) here?
The Potency was inconclusive: 16.4 µM [inhibitor, single point].

With `O=C(O)c1ccccc1C(=O)Nc1cc(-c2ccccc2)[nH]n1` as the molecule, how does the “activity change, negative = growth inhibition” value read?
Its value is inactive: -13.4%.

For `CC(=O)Nc1ccc(SC[C@H](Cc2ccccc2)N2CCN(CCc3ccccc3)CCC2=O)cc1`, which Potency is on record?
The Potency was inconclusive: 18.4 µM [inhibitor, single point].

Which Potency does the source give for `CCCn1c2ccccc2c2cnn(CC(=O)N3CCC(C(=O)OCC)CC3)c(=O)c21` here?
The Potency was inconclusive: 16.4 µM [inhibitor, single point].

Which Potency does the source give for `CCOc1ccc(NC(=O)CCCCCN2C(=O)[C@@H]3Cc4ccccc4CN3C2=O)cc1` here?
Its Potency is inconclusive: 29.1 µM [inhibitor, single point].

For `COc1ccc(C2C(=O)N(C3CCC(C)CC3)CC(=O)N2Cc2ccccc2Cl)cc1OC` (stereo not given), which Potency is on record?
Its Potency is inconclusive: 23.1 µM [inhibitor, single point].

With `COc1ccc(OC)c(C2C(C#N)=C(N)Oc3cc(N)ccc32)c1` (stereo not given) as the molecule, how does the Potency read?
Its Potency is inconclusive: 25.9 µM [inhibitor, single point].

Which “activity change, negative = growth inhibition” value does the source give for `O=C(NCCCN1CCCC1=O)Nc1ccc(F)c(Cl)c1` here?
Its value is inactive: -7.83%.
